Experimental findings from paper PMC4336329 (PLoS ONE, 2015) are described below.

Among all 310,000 compounds or so, about 2,200 (0.71%) showed an effect of 50% or more. Effects have a minus sign here. Some of the results follow.

This test deals with human ether-à-go-go-related gene (hERG) potassium channel (human, UniProt Q12809). Put plainly: primary screen, population patch clamp on CHO cells stably expressing hERG.
Sequence of human ether-à-go-go-related gene (hERG) potassium channel (Q12809 whole entry, looked up): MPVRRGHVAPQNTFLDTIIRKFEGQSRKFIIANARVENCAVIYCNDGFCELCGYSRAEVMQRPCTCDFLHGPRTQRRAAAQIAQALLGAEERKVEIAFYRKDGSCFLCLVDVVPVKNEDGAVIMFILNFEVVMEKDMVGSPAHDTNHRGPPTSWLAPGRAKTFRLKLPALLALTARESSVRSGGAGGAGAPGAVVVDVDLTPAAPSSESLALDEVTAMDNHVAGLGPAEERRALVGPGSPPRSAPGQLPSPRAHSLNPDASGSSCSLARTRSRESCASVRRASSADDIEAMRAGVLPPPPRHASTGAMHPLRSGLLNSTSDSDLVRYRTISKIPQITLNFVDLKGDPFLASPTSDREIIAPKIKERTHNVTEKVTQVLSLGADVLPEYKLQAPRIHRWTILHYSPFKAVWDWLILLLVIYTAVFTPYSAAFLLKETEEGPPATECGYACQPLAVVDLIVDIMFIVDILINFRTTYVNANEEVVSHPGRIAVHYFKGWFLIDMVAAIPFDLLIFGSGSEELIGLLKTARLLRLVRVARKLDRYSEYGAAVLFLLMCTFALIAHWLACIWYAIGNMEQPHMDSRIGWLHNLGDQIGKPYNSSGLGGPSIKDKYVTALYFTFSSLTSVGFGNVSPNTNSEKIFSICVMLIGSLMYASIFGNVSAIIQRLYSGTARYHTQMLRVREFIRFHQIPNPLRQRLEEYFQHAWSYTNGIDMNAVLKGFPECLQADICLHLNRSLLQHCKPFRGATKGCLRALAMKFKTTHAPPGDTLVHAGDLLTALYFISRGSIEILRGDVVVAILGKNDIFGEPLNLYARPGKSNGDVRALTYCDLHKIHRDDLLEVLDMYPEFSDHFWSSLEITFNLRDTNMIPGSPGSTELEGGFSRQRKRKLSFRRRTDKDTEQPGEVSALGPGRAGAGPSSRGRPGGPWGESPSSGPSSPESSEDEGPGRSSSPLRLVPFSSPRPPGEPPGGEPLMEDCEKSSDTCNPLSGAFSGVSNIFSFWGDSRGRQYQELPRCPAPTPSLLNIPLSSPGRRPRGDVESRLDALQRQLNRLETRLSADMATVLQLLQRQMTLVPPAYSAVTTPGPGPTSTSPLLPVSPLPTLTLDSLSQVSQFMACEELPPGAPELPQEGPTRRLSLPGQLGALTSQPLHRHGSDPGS
For `Cc1ccc(Cl)cc1-n1c(=O)cc(N2CC(C)OC(C)C2)[nH]c1=O` (centres unmarked), the “hERG current change (%, negative = inhibition) at 1uM” value is reported as 0.208%. For `Cc1cc2ccccc2n2c(SCC(=O)N3CCc4ccccc4C3)nnc12`, the “hERG current change (%, negative = inhibition) at 1uM” value is listed as 7.81%. Consider `Cc1cc(C(=O)NC(Cc2c[nH]c3ccccc23)C(=O)O)c(C)o1` (centres unmarked), for which the “hERG current change (%, negative = inhibition) at 1uM” value is reported as 18.1%. Consider `CCOc1ccc(C(C)=O)cc1COC(=O)CN1C(=O)NC2(CCCC2)C1=O`, for which the “hERG current change (%, negative = inhibition) at 1uM” value is 10.7%. As to `c1cc2c3c(cccc3c1)C(N1CCCCC1)=N2`, the “hERG current change (%, negative = inhibition) at 1uM” value is given as -44.8%. For the compound `CCOC(=O)N/N=C/c1c(F)cccc1F`, the “hERG current change (%, negative = inhibition) at 1uM” value stood at 12.2%.

Consider `COC(=O)c1cc2sccc2n1CC(=O)N(C)c1ccccc1`, for which the “hERG current change (%, negative = inhibition) at 1uM” value is 11.5%. On to `COc1cc(OC)nc(NC(=O)CSc2nnc(-c3ccccc3)n2C2CCCCC2)n1`, for which the “hERG current change (%, negative = inhibition) at 1uM” value turned out to be 8.74%. In the case of `CCS(CC)=NS(=O)(=O)c1ccc(NC(C)=O)cc1`, the “hERG current change (%, negative = inhibition) at 1uM” value turned out to be 0.751%. `Cn1cc(C(=O)C(=O)N2CCCC2)c2ccccc21`: the “hERG current change (%, negative = inhibition) at 1uM” value is on record as 14.3%. Take `CC(C)(CSc1ccccn1)NS(=O)(=O)c1ccccc1`: the “hERG current change (%, negative = inhibition) at 1uM” value is 1.44%.

On to `CCc1nn2c(=O)cc(COc3ccc(/C=C4\C(=N)N5N=C(C)SC5=NC4=O)cc3)nc2s1`, for which the “hERG current change (%, negative = inhibition) at 1uM” value stood at 10.6%.

As for `CCOC(=O)c1cn(-c2nc(-c3ccc(Cl)c(Cl)c3)cs2)c2c(F)c(N3CCOCC3)c(F)cc2c1=O`, the “hERG current change (%, negative = inhibition) at 1uM” value is 17.1%. `CSC(=NC1CCCCC1)NS(=O)(=O)c1ccccc1`: the “hERG current change (%, negative = inhibition) at 1uM” value is on record as 0.58%. With `CC(=O)Nc1cccc(NC(=O)CSc2ccc(-c3ccco3)nn2)c1`, the “hERG current change (%, negative = inhibition) at 1uM” value turned out to be 11%. `CCN(CC)CCNC(=O)c1ccc(NC(=O)COc2ccccc2F)cc1.Cl`: the “hERG current change (%, negative = inhibition) at 1uM” value was -9.43%.

On to `CCOC(=O)C1(Cc2ccccc2C(F)(F)F)CCN(CC(O)CO)CC1` (centres unmarked), for which the “hERG current change (%, negative = inhibition) at 1uM” value came out at 10%. The result for `COc1cccc(-c2nn(-c3ccccc3)cc2/C=C\C(=O)c2cccs2)c1` reads 17.4%; that for `O=C(O)c1ccc(NS(=O)(=O)c2ccc(Cl)cc2)cc1`, 5.71%; that for `CCSC1=C(C#N)C(c2ccccc2Cl)CC(=O)N1` (centres unmarked), 11.9%. For the compound `CN(Cc1nccn1C)C(=O)CC1C(=O)NCCN1Cc1ccccc1C(F)(F)F` (centres unmarked), the “hERG current change (%, negative = inhibition) at 1uM” value was 17.7%. With `CC(C)(C)c1ccccc1NC(=O)c1ccc(-n2cncn2)c([N+](=O)[O-])c1`, the “hERG current change (%, negative = inhibition) at 1uM” value amounted to 7.04%.

`CCN(CC)CC(=O)Nc1ccc(Cl)cc1C(=O)c1ccccc1`: the “hERG current change (%, negative = inhibition) at 1uM” value was determined as 6.87%. Turning to `CC(C(=O)NCCc1ccccc1)N1c2cccc3cccc(c23)S1(=O)=O` (centres unmarked), the “hERG current change (%, negative = inhibition) at 1uM” value is on record as 4.02%. The result for `COc1cccc(C(=O)NCCCN2CCN(CCCNC(=O)c3cccc(OC)c3)CC2)c1` reads -65.2%; that for `Cc1ccc(N(CCCCN2C(=O)c3ccccc3C2=O)C(=O)c2ccc(Cl)s2)cc1`, 8.06%.

As to `O=C(CSc1ccc2nnc(-c3cccnc3)n2n1)NCc1ccc2c(c1)OCO2`, the “hERG current change (%, negative = inhibition) at 1uM” value is 4.47%. To `C(=C\c1ccccc1)/C=N/N1CCN(c2ccccn2)CC1` belongs 8.59%; to `CC(=O)OCCNC(=O)c1cc2ccccc2oc1=O`, 12.2%; to `COc1ccc(NS(=O)(=O)c2cccc(C(=O)NNC(=O)c3ccccc3OC)c2)cc1`, 4.27%.

`O=C1CC(N2CCN(Cc3ccc4c(c3)OCO4)CC2)C(=O)N1Cc1ccc(N2CCCC2=O)cc1` (centres unmarked): the “hERG current change (%, negative = inhibition) at 1uM” value turned out to be 10.5%. In the case of `CCCCc1ccc(NC(=S)N2CCN(C(=O)c3ccco3)CC2)cc1`, the “hERG current change (%, negative = inhibition) at 1uM” value is -6.86%.

On to `COc1ccc(CN=C2NC(=O)CC(C(=O)Nc3ccc(Cl)cc3)S2)cc1` (centres unmarked), for which the “hERG current change (%, negative = inhibition) at 1uM” value is 0.837%.

`CC(=O)Nc1ccc(NC(=O)CC(C)n2ccnc2)cc1` (centres unmarked): the “hERG current change (%, negative = inhibition) at 1uM” value was 10.8%.

On to `O=C(CC1(O)C(=O)N(Cc2cccc3ccccc23)c2ccccc21)c1cccnc1` (centres unmarked), for which the “hERG current change (%, negative = inhibition) at 1uM” value is given as -1.34%.

Take `COc1cc(OC)c(OC)cc1CCC(C)NCCC(c1ccccc1)c1ccccc1.Cl` (centres unmarked): the “hERG current change (%, negative = inhibition) at 1uM” value is given as -32.4%.

With `O=C(CSc1nnc(-c2ccc([N+](=O)[O-])cc2)o1)Nc1ccccn1`, the “hERG current change (%, negative = inhibition) at 1uM” value was found to be 5.7%. In the case of `Cc1ccc(S(=O)(=O)N(C)c2ccccc2C(=O)N2CCCC2)cc1`, the “hERG current change (%, negative = inhibition) at 1uM” value is listed as 13.6%. For the compound `COc1ccc(-n2c(SCC(=O)Nc3ccc4c(c3)OCO4)nc3c(c2=O)SCC3)cc1`, the “hERG current change (%, negative = inhibition) at 1uM” value was 6.2%. With `COC1(c2cc(-c3ccccc3)nc(N)n2)CCCCC1`, the “hERG current change (%, negative = inhibition) at 1uM” value was 1.88%. The result for `Cc1c2cnn(CC(=O)N3CCC4(CC3)OCCO4)c(=O)c2c(C)n1Cc1ccc(F)cc1` reads -13.1%; that for `Nc1nnc(SCC(=O)NC2CCCc3ccccc32)s1` (centres unmarked), 10%. Regarding `C=CCNC(=O)c1ccccc1S(=O)c1ccccc1C#N` (centres unmarked), the “hERG current change (%, negative = inhibition) at 1uM” value was found to be 7.99%. Take `Cc1ccc2cc3c(NC(=O)c4ccco4)nn(CC(C)C)c3nc2c1`: the “hERG current change (%, negative = inhibition) at 1uM” value is given as 1.88%. To `COc1ccc(/C=N/NC(=O)CCn2nnc3ccccc32)cc1` belongs 11.5%; to `COc1ccccc1NC(=S)Nc1cccc(F)c1`, 14.2%; to `CNC(=O)N(O)C1N(C)C(=O)N(CC(=O)OC)C1(C)C` (centres unmarked), 2.06%.

On to `CC(C)(C)c1ccc(-c2c(C(=O)O)c(C(=O)O)c3n2CSC3)cc1`, for which the “hERG current change (%, negative = inhibition) at 1uM” value was 10.8%. The result for `COc1ccccc1C(=O)NCCC(=O)NCc1ccccn1` reads 5.39%. Turning to `COc1ccc(C(=O)N2N=C(c3cccc(OC)c3)CC2(O)C(F)(F)F)cc1` (centres unmarked), the “hERG current change (%, negative = inhibition) at 1uM” value is 7.97%. The result for `Cc1cccn2c(=O)c3cc(C(=O)N4CCN(Cc5ccccc5)CC4)sc3nc12` reads -8.01%; that for `Cc1ccc(CNC(=O)c2ccc(NS(=O)(=O)c3c(C)noc3C)cc2)cc1`, 3.45%. `COc1cc(Cl)c(C)cc1Nc1ncccn1`: the “hERG current change (%, negative = inhibition) at 1uM” value amounted to 7.69%. Turning to `Cc1oc(-c2ccc(Cl)cc2)nc1CN1CCCC(C(=O)NCc2cccnc2)C1` (centres unmarked), the “hERG current change (%, negative = inhibition) at 1uM” value was -43.6%. As to `COc1cc(/C=N/n2cnnc2)ccc1OCCSc1ccc(C)cc1`, the “hERG current change (%, negative = inhibition) at 1uM” value turned out to be 2.9%. As for `C(=C\c1ccccc1)/CN1CCN(c2ncnc3c2oc2ccccc23)CC1`, the “hERG current change (%, negative = inhibition) at 1uM” value is on record as -8.87%.
